This test has as its target Human Hsp70 (HSPA1A), as used in the ELISA-like assays (human, UniProt P0DMV8). Put plainly: ELISA. Background: ELISA stands for enzyme-linked immunosorbent assay.

We go through one molecule from article PMC3477299 (ACS chemical biology, 2012).

UniProt P0DMV8, sequence (P0DMV8 whole entry): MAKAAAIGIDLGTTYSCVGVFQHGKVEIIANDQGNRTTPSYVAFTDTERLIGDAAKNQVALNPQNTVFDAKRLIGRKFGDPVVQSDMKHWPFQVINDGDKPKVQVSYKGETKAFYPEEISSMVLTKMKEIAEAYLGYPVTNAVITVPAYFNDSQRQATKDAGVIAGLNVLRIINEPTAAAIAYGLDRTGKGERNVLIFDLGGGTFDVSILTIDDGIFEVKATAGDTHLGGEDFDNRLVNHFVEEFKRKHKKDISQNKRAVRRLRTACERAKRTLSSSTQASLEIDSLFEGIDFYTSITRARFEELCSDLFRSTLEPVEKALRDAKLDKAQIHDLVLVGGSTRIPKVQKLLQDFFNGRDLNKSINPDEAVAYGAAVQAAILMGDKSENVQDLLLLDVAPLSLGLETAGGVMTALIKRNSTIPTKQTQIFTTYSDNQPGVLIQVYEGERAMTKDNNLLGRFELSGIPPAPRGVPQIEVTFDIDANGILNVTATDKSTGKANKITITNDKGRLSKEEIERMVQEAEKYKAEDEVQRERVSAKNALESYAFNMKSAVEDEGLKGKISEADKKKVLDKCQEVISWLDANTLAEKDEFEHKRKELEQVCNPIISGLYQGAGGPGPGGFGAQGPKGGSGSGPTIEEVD

B1: N-terminal His-tagged Human 4RON tau (natural protein)
chain: not shown
For B1, the Kd turned out to be 2900 ± 200 nM.

As a reminder, the Kd is the concentration at which binding is half-saturated.
